45 compounds from PMC4336329 (PLoS ONE, 2015) can be followed below.

Hit rate of the full screen: of about 310,000 compounds, about 2,200 (0.71%) showed an effect of 50% or more. Effects have a minus sign here. Some of the results follow.

Chain of human ether-à-go-go-related gene (hERG) potassium channel (Q12809 whole entry, looked up): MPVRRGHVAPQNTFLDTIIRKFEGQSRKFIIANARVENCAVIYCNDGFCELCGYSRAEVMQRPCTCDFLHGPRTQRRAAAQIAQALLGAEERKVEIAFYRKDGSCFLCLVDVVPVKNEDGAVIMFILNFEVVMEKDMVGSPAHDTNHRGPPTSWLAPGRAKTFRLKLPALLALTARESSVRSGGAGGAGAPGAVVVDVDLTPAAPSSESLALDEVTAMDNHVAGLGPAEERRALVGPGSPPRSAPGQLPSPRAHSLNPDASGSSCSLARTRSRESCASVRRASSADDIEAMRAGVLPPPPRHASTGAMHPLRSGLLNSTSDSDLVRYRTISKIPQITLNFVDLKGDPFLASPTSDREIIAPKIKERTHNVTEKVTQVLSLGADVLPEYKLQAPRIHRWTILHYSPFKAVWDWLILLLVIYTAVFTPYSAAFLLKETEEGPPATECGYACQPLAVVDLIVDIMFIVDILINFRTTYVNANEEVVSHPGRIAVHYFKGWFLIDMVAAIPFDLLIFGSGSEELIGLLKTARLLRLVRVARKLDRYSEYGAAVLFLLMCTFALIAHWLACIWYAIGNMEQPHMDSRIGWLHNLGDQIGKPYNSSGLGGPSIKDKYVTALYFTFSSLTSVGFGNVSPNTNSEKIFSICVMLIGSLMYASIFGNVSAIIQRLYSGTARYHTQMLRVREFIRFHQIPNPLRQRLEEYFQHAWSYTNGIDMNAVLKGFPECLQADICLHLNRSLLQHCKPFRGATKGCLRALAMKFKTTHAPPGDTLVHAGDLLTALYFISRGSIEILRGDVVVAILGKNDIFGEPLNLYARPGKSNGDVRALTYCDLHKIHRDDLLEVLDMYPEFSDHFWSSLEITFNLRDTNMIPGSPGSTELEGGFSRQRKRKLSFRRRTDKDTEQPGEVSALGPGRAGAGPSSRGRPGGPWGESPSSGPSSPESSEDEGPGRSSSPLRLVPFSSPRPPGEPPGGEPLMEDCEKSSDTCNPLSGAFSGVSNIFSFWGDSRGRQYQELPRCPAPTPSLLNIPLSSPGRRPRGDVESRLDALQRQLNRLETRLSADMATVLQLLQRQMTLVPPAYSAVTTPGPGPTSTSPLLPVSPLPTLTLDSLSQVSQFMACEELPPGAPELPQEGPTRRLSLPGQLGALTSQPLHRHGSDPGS

The test has as its target human ether-à-go-go-related gene (hERG) potassium channel (human, UniProt Q12809). The test can be described thus: primary screen, population patch clamp on CHO cells stably expressing hERG.
For `CCCCN(C(=O)Nc1ccccc1)C1CCS(=O)(=O)C1` (stereo not drawn), the “hERG current change (%, negative = inhibition) at 1uM” value is -0.108%.

For the compound `Cc1cccc(Nc2nc(Cl)ncc2F)c1C`, the “hERG current change (%, negative = inhibition) at 1uM” value was 7.49%.

For the compound `Cc1ccc(NC(=O)CCC(=O)c2cccs2)cc1F`, the “hERG current change (%, negative = inhibition) at 1uM” value was 5.24%.

For the compound `Cn1c(SCC(=O)NC2CCCC2)nnc1-c1cccs1`, the “hERG current change (%, negative = inhibition) at 1uM” value is 13%.

For `COc1ccccc1-n1c(O)c(C=Nc2c(C)n(C)n(-c3ccccc3)c2=O)c(=O)[nH]c1=O`, the “hERG current change (%, negative = inhibition) at 1uM” value was 6.76%.

Regarding `CCOC(=O)N1CCC(Nc2c(NCCCOC)c(=O)c2=O)CC1`, the “hERG current change (%, negative = inhibition) at 1uM” value was determined as 4.31%.

In the case of `CCCN(C(=O)Cc1csc(-c2ccccc2)n1)C1CCS(=O)(=O)C1` (stereo not drawn), the “hERG current change (%, negative = inhibition) at 1uM” value worked out at 0.515%.

As for `CCCCNCCOCCOc1ccc(C)cc1[N+](=O)[O-].O=C(O)C(=O)O`, the “hERG current change (%, negative = inhibition) at 1uM” value came out at 2.88%.

On to `COc1cccc(NC(=O)CNc2cc(S(=O)(=O)N3CCOCC3)ccc2N2CCCC2)c1`, for which the “hERG current change (%, negative = inhibition) at 1uM” value is given as 13%.

On to `COc1ccccc1CNC(=O)CC12CC3CC(CC(Br)(C3)C1)C2`, for which the “hERG current change (%, negative = inhibition) at 1uM” value turned out to be 12.8%.

Take `O=C(Nc1ccc(Nc2ccccc2)cc1)C(Cl)(Cl)Cl`: the “hERG current change (%, negative = inhibition) at 1uM” value is on record as 7.95%.

For `O=C1CN(C(=O)N[C@@H](Cc2ccccc2)C(=O)N[C@@H](Cc2ccccc2)C(=O)O)c2ccccc2N1`, the “hERG current change (%, negative = inhibition) at 1uM” value is 6.94%.

On to `COc1cc(NC(=O)C2CCCC2)c(OC)cc1Cl`, for which the “hERG current change (%, negative = inhibition) at 1uM” value is on record as -0.316%.

As for `Cc1ccc(N=Cc2c(O)n(-c3nccs3)c(=O)c3ccccc23)c(C)c1`, the “hERG current change (%, negative = inhibition) at 1uM” value is listed as -1.41%.

Consider `Cc1ccc(SCCNC(=O)/C=C/c2ccccc2Cl)cc1`, for which the “hERG current change (%, negative = inhibition) at 1uM” value came out at 11%.

On to `Cc1ccn2c(NC(=O)c3ccccc3)c(-c3ccccc3)nc2c1`, for which the “hERG current change (%, negative = inhibition) at 1uM” value came out at 5.85%.

As to `CCC(=O)N1CCc2cc(S(=O)(=O)CCC(=O)NCc3cccc(OC)c3)ccc21`, the “hERG current change (%, negative = inhibition) at 1uM” value was determined as 14.9%.

`COc1ccccc1C(=O)Nc1nc2nc(-c3ccccc3)cc(=O)n2[nH]1`: the “hERG current change (%, negative = inhibition) at 1uM” value stood at 6.43%.

As for `O=C(Cn1nnc(-c2ccccc2Cl)n1)NCc1ccc2c(c1)OCO2`, the “hERG current change (%, negative = inhibition) at 1uM” value is given as 7%.

With `CCN1C(=O)/C(=C/C=C2\C=CN(CC)c3ccccc32)SC1=S`, the “hERG current change (%, negative = inhibition) at 1uM” value was found to be 3.78%.

Take `O=C(CCc1nnc(COc2ccccc2)o1)NC1(c2ccccc2)CC1`: the “hERG current change (%, negative = inhibition) at 1uM” value came to 6.97%.

`Cn1c(SCC(=O)Nc2ccccc2F)nnc1C1CCCCC1`: the “hERG current change (%, negative = inhibition) at 1uM” value is listed as 11.1%.

With `COC(=O)C1CSc2[nH]c(=O)sc2C1c1ccccc1` (stereo not drawn), the “hERG current change (%, negative = inhibition) at 1uM” value is -6.76%.

`O=C(COC(=O)c1ccc(S(=O)(=O)NCc2ccco2)cc1)Nc1ccc(Cl)cn1`: the “hERG current change (%, negative = inhibition) at 1uM” value is recorded as 19.3%.

`Cc1c(Cl)cccc1N(CC(=O)N1CCCCCC1)S(C)(=O)=O`: the “hERG current change (%, negative = inhibition) at 1uM” value worked out at 7.71%.

On to `CC(=O)c1sc2nc(CSc3nnnn3-c3ccccc3)[nH]c(=O)c2c1C`, for which the “hERG current change (%, negative = inhibition) at 1uM” value is 7.38%.

Consider `COCCN(C(=O)CSc1nc2ccc(C)cc2[nH]1)c1c(N)n(Cc2ccccc2)c(=O)[nH]c1=O`, for which the “hERG current change (%, negative = inhibition) at 1uM” value came out at 15.5%.

With `Cc1cc(C)nc(NS(=O)(=O)c2ccc(NC(=S)NC(=O)CC(C)C)cc2)n1`, the “hERG current change (%, negative = inhibition) at 1uM” value came to 5.67%.

Take `CCn1c2ccccc2c2cc(NC(=O)c3ccc(=O)oc3)ccc21`: the “hERG current change (%, negative = inhibition) at 1uM” value is 11.5%.

For the compound `COc1ccc(Cn2nnc(C(=O)Nc3ccc4c(c3)OCCO4)c2N)cc1Br`, the “hERG current change (%, negative = inhibition) at 1uM” value turned out to be 1.32%.

Turning to `Cc1cc(-c2ccccc2)c2c(=O)[nH][nH]c2n1`, the “hERG current change (%, negative = inhibition) at 1uM” value is 20.6%.

On to `O=C(O)CCCC(=O)Nc1ccc(Cl)c(Cl)c1`, for which the “hERG current change (%, negative = inhibition) at 1uM” value was 13.1%.

With `Cc1ccc(NS(=O)(=O)c2cccc(C(=O)NNC(=O)c3cccn3C)c2)c(C)c1`, the “hERG current change (%, negative = inhibition) at 1uM” value came out at 8.39%.

Regarding `CCN(C(=O)C1CCCN(c2ncnc3c2nc2n3CCCCC2)C1)c1cccc(Cl)c1` (stereo not drawn), the “hERG current change (%, negative = inhibition) at 1uM” value worked out at 5.63%.

Regarding `Cc1cc(C(=O)Cn2nc(C(=O)O)c3ccccc3c2=O)c(C)n1-c1ccc(F)cc1`, the “hERG current change (%, negative = inhibition) at 1uM” value stood at 10.5%.

Turning to `Cc1ccccc1Cn1nc(C)c(NC(=O)c2cc(-c3cccs3)on2)c1C`, the “hERG current change (%, negative = inhibition) at 1uM” value was determined as 7.98%.

Consider `CCOC(=O)c1c(NC(=O)CC(C)C)sc(C(C)=O)c1C`, for which the “hERG current change (%, negative = inhibition) at 1uM” value is reported as 8.11%.

As to `CC1(C)Cc2nc3sc(C(=O)NCCO)c(N)c3cc2CO1`, the “hERG current change (%, negative = inhibition) at 1uM” value is listed as -11.7%.

`CCOC(=O)C(C)Oc1cccc2c(=O)n(CC(=O)NCc3ccccc3)ccc12` (stereo not drawn): the “hERG current change (%, negative = inhibition) at 1uM” value was determined as 8.81%.

On to `CCOC(=O)c1c(-c2ccc(C)o2)csc1NC(=S)NC(=O)c1ccccc1Br`, for which the “hERG current change (%, negative = inhibition) at 1uM” value worked out at 15.7%.

With `Cl.c1ccc2c(Nc3ccc4c(c3)OCCO4)c3c(nc2c1)CCC3`, the “hERG current change (%, negative = inhibition) at 1uM” value is recorded as -13.9%.

As to `O=C1NC(=Nc2ccccc2Cl)S/C1=C\c1cccc([N+](=O)[O-])c1O`, the “hERG current change (%, negative = inhibition) at 1uM” value is listed as 13.3%.

As to `O=C(CN1CCN(S(=O)(=O)c2ccccc2)CC1)Nc1ccccc1C(=O)c1ccccc1`, the “hERG current change (%, negative = inhibition) at 1uM” value is -2.35%.

For the compound `Cn1nc(C(=O)OCc2ccccc2F)c2ccccc2c1=O`, the “hERG current change (%, negative = inhibition) at 1uM” value is 13.8%.

As for `CC(C)(C)c1cc(NC(=O)Nc2ccc(Br)cc2Cl)no1`, the “hERG current change (%, negative = inhibition) at 1uM” value came to 11.9%.
